{
  "source": "PubChem BioAssay AID485360",
  "about": "(National Center for Advancing Translational Sciences (NCATS), 2010)",
  "note": "Values joined by “and” are separate entries in the source; they are usually repeats but may differ in a detail not shown here. Equal values may be shown once. The whole screen tested about 230,000 compounds, of which about 1,500 (0.65%) were called active. The inconclusive results got no clear call from the source; some entries with a clear call stand among them for comparison. Calls follow the shape of the dose curve; as a rule, active = well fitted inhibition curve with a large enough effect; inconclusive = small, poorly fitted or top-dose-only effect; inactive = no such curve, though single readings can be large or run the other way. A potency beside an inconclusive call is a rough fit, not a confirmed value. % is scaled to controls: 0 for no effect and ±100 for the full control effect; potency is read from the fitted curve at half-maximal effect; tags tell the direction and shape of the fitted curve.",
  "data": [
    {"target": "Lethal(3)malignant brain tumor-like protein 1 (Homo sapiens) (UniProt Q9Y468)", "sequence (Q9Y468 whole entry, looked up)": "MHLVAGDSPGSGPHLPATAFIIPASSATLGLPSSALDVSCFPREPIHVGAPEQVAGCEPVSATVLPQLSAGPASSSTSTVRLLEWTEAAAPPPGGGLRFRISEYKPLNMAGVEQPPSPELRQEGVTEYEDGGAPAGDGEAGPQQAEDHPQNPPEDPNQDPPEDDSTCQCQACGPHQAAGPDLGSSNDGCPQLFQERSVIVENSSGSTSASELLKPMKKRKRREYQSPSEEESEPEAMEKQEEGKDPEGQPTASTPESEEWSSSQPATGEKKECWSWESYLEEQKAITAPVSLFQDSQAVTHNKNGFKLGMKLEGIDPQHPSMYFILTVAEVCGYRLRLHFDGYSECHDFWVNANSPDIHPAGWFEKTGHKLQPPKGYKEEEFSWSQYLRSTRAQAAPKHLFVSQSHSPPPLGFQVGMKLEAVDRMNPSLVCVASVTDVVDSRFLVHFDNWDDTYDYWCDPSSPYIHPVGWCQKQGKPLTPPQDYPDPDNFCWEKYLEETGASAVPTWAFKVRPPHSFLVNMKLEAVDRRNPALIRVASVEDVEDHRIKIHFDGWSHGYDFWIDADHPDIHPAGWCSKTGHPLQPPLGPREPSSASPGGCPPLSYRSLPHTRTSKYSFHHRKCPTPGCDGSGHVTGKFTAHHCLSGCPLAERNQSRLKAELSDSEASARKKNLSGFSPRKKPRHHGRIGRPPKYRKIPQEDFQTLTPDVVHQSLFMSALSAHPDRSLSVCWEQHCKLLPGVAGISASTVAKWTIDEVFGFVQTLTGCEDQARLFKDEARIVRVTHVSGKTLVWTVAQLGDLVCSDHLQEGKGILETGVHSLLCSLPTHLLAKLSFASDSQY", "assay": "qHTS Assay for the Inhibitors of L3MBTL1; also: nearly all actives have a fitted effect of over 60% in size", "settings": "AlphaScreen L3MBTL1–H3K9me1 peptide binding; activity, negative = inhibition: at 57.1 µM (top of the series)", "outline": "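Displacement of a biotinylated histone H3(1-15) peptide monomethylated at Lys9 (75 nM) from L3MBTL1 (50 nM) was measured by AlphaScreen after a 30 min room-temperature compound incubation; cefsulodin titration served as intraplate control.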", "values": [
      {"molecule": "Cc1ccccc1C1=NCC(=O)N(CC(=O)NCc2ccco2)c2sc3c(c21)CCCC3", "Potency": "inconclusive: 39.8 µM [inhibitor, single point]"},
      {"molecule": "Cc1cc(/C=C2\\C(=O)NC(=O)N(Cc3ccccc3)C2=O)c(C)n1-c1ccc(Cl)c(C(=O)O)c1", "Potency": "active: 4.47 µM"},
      {"molecule": "CCCCn1c(O)c(C(CC)=NCc2ccco2)c(=O)[nH]c1=O", "Potency": "inconclusive: 6.31 µM [inhibitor, single point]"},
      {"molecule": "CC(C)CN(CC(C)C)c1ccc(C=C2C(=O)NC(=S)NC2=O)cc1[N+](=O)[O-]", "Potency": "inconclusive: 28.2 µM [inhibitor, single point]"},
      {"molecule": "COc1ccc(OCCOc2cccc(C=C3C(=O)NC(=O)NC3=O)c2)cc1", "Potency": "inconclusive: 4.47 µM [inhibitor, single point]"},
      {"molecule": "C[N+](C)(C)CCOC(=O)CBr", "Potency": "inconclusive: 14.1 µM [inhibitor, partial curve]"},
      {"molecule": "CC(=O)NCC(=O)Nc1ccc(Br)cc1C(=O)c1ccccc1", "Potency": "inactive"},
      {"molecule": "COc1cc2c3c(c1OC)Oc1ccc(cc1)C[C@H]1c4c(cc(OC)c(OC)c4Oc4ccc(cc4)C[C@@H]3N(C)CC2)CCN1C", "Potency": "inactive"},
      {"molecule": "CN1CC(C(=O)c2ccc(Cl)cc2)C(c2ccc(N(C)C)cc2)C1", "note": "(stereo unspecified)", "Potency": "inconclusive: 3.98 µM [inhibitor, full curve]"},
      {"molecule": "O=C(COc1ccc(Cl)cc1)N1CCN(Cc2ccccc2)CC1", "Potency": "inactive"},
      {"molecule": "COc1ccc(C(=O)CC2C(=O)N(C)C(=O)N(C)C2=O)cc1", "Potency": "inconclusive: 4.47 µM [inhibitor, full curve]"},
      {"molecule": "O=C1NC(=O)N(Cc2ccccc2)C(=O)/C1=C/N1CCCc2ccccc21", "Potency": "inconclusive: 31.6 µM [inhibitor, single point]"},
      {"molecule": "COc1cc(OC)cc(C(=O)NC(=S)N2C[C@H]3C[C@H](C2)c2cccc(=O)n2C3)c1", "Potency": "inactive"},
      {"molecule": "O=c1[nH]c(=O)n(Cc2ccco2)c(O)c1/C=N/N1CCCCC1", "Potency": "inconclusive: 20 µM [inhibitor, single point]"},
      {"molecule": "O=c1[nH]c(=O)n(Cc2ccc(F)cc2)c(O)c1C=NCCCO", "Potency": "inconclusive: 7.08 µM [inhibitor, single point]"},
      {"molecule": "Cc1cccc(-n2c(-c3cccs3)nc3ccccc3c2=O)c1", "Potency": "inconclusive: 25.1 µM [inhibitor, partial curve]"},
      {"molecule": "CCCCC(=O)N/N=C/c1c(O)n(-c2cccc3ccccc23)c(=O)[nH]c1=O", "Potency": "inactive"},
      {"molecule": "Cc1ccc(S(=O)(=O)Cc2ccc(C(=O)N3CCC4(CC3)OCCO4)o2)cc1", "Potency": "inconclusive: 31.6 µM [inhibitor, single point]"},
      {"molecule": "C=CCN1C(=O)/C(=C/c2cccs2)C(=O)NC1=S", "Potency": "inconclusive: 35.5 µM [inhibitor, single point]"},
      {"molecule": "N/C(=N\\N=C/c1ccc(-c2ccc(O)c(C(=O)O)c2)o1)N[N+](=O)[O-]", "Potency": "active: 11.2 µM"},
      {"molecule": "CCOC(=O)c1c(-n2c(C)cc(C=C3C(=O)NC(=O)NC3=O)c2C)sc2c1CCCC2", "Potency": "inactive"},
      {"molecule": "COc1ccc(C(=O)C2CN(C)CC2c2ccc(Cl)cc2)cc1", "note": "(stereo unspecified)", "Potency": "inconclusive: 0.141 µM [inhibitor, full curve, poor fit]"},
      {"molecule": "O=c1oc2ccccc2c(O)c1C(c1ccc([N+](=O)[O-])cc1)c1c(O)c2ccccc2oc1=O", "Potency": "inconclusive: 15.8 µM [inhibitor, partial curve]"},
      {"molecule": "CC(=O)c1c(C)n(Cc2ccccc2Cl)c2ccc(O)cc12", "Potency": "inactive"},
      {"molecule": "c1ccc2c(c1)[nH]c1cnccc12", "Potency": "inactive"},
      {"molecule": "NNC(=O)c1nn(-c2ccccc2)cc1O", "Potency": "inconclusive: 14.1 µM [inhibitor, partial curve, poor fit]"},
      {"molecule": "COC1=CC=C2[C@H]3Cc4ccc(OC)c5c4[C@@]2(CCN3C)C1O5", "note": "(stereo partly specified)", "Potency": "inconclusive: 31.6 µM [inhibitor, single point]"},
      {"molecule": "CCN(CC)C(=O)c1ccc2c(c1)C1C(Cl)C(Sc3ccccc3[N+](=O)[O-])CC1C(C(=O)O)N2", "note": "(stereo unspecified)", "Potency": "active: 14.1 µM"},
      {"molecule": "O=c1[nH]c(O)c(N=Nc2cccc(S(=O)(=O)N3CCOCC3)c2)c(=O)[nH]1", "Potency": "inactive"},
      {"molecule": "C=CCN1C(=O)NC(=O)/C(=C/c2cc3c4c(c2)CCCN4CCC3)C1=O", "Potency": "active: 28.2 µM"},
      {"molecule": "Fc1ccccc1N1CCN(Cc2c(F)cccc2F)CC1", "activity, negative = inhibition": "inactive: -11% [at 11.4 µM]"},
      {"molecule": "COc1ccc(CN2C(=O)NC(=O)/C(=C/c3ccoc3)C2=O)cc1", "Potency": "inconclusive: 35.5 µM [inhibitor, single point]"},
      {"molecule": "O=C1NC(=O)C(=Cc2ccc(SC3CCCCC3)o2)C(=O)N1", "Potency": "inconclusive: 28.2 µM [inhibitor, single point]"},
      {"molecule": "O=C(CCC1CCCC1)c1c(O)c2ccccc2oc1=O", "Potency": "inconclusive: 39.8 µM [inhibitor, single point]"},
      {"molecule": "COc1ccc(N2C(=O)CS(=O)C(c3ccccc3)C2=O)cc1", "note": "(stereo unspecified)", "Potency": "inconclusive: 28.2 µM [inhibitor, single point]"},
      {"molecule": "NC(C(=O)O)c1cc(=O)[nH]o1", "note": "(stereo unspecified)", "Potency": "inactive"},
      {"molecule": "CC(C)c1ccc(N2C(=O)NC(=O)/C(=C/C=C/c3ccco3)C2=O)cc1", "Potency": "inconclusive: 39.8 µM [inhibitor, single point]"},
      {"molecule": "CCCCOc1ccc(CC2C(=O)N(C)C(=O)N(C)C2=O)cc1", "Potency": "inconclusive: 44.7 µM [inhibitor, partial curve]"},
      {"molecule": "CC(=O)N(C1=NCCCS1)c1ccccc1F", "Potency": "inconclusive: 0.708 µM [inhibitor, single point]"},
      {"molecule": "CCCCC/C=C\\C/C=C\\C/C=C\\C/C=C\\CCCC(=O)O", "Potency": "inconclusive: 39.8 µM [inhibitor, single point]"},
      {"molecule": "O=C(N/N=C/c1c(O)n(-c2cccc3ccccc23)c(=O)[nH]c1=O)c1ccncc1", "Potency": "inconclusive: 35.5 µM [inhibitor, single point]"},
      {"molecule": "Cc1cc2c(C(C)C)c(O)c(O)c(C=O)c2c(O)c1-c1c(C)cc2c(C(C)C)c(O)c(O)c(C=O)c2c1O", "activity, negative = inhibition": "inconclusive: -96.8% [inhibitor] and inconclusive: -97.1% [inhibitor]"},
      {"molecule": "CN(C)CC1CSCCC1(O)c1ccc(Cl)cc1", "note": "(stereo unspecified)", "activity, negative = inhibition": "inactive: 21.8% [at 11.4 µM]"},
      {"molecule": "COC(=O)C1=C(c2ccc3ccccc3c2)C[C@@H]2CC[C@H]1N2C(=O)NCc1ccco1", "Potency": "inactive"},
      {"molecule": "O=[N+]([O-])c1cc(S(=O)(=O)c2ccc(O)c([N+](=O)[O-])c2)ccc1O", "Potency": "active: 10 µM"},
      {"molecule": "Clc1ccc(C(Cn2ccnc2)OCc2csc3c(Cl)cccc23)c(Cl)c1", "note": "(stereo unspecified)", "Potency": "inconclusive: 22.4 µM [inhibitor, partial curve]"},
      {"molecule": "CN1C(=O)/C(=C/c2cccn2-c2ccc3ccccc3c2)C(=O)NC1=S", "Potency": "inconclusive: 25.1 µM [inhibitor, single point]"},
      {"molecule": "COc1ccc(OCC(=O)N2CCN(Cc3ccc4c(c3)OCO4)CC2)cc1", "Potency": "inactive"},
      {"molecule": "Cc1cc(/C=C2\\C(=O)NC(=O)N(c3ccc(F)cc3)C2=O)c(C)n1-c1cccc(C(=O)O)c1", "Potency": "inconclusive: 28.2 µM [inhibitor, partial curve]"},
      {"molecule": "C=CCn1c(O)c(C(CC)=Nc2ccc(N(C)C)cc2)c(=O)[nH]c1=O", "Potency": "inconclusive: 11.2 µM [inhibitor, partial curve]"},
      {"molecule": "CCCCN1C(=O)/C(=C/c2ccc(N3CCCCCC3)cc2)C(=O)NC1=S", "Potency": "inconclusive: 7.08 µM [inhibitor, single point]"},
      {"molecule": "CC(=C1C(=O)c2ccccc2C1=O)N1CCN(CCN=Cc2c(O)n(C)c(=O)n(C)c2=O)CC1", "Potency": "inconclusive: 6.31 µM [inhibitor, full curve]"},
      {"molecule": "Cc1cccc(OCCn2cccc2/C=C2/C(=O)NC(=O)N(Cc3ccco3)C2=O)c1", "Potency": "active: 20 µM"},
      {"molecule": "CCCCC(=O)N/N=C/c1c(O)n(Cc2ccco2)c(=O)[nH]c1=O", "Potency": "inconclusive: 39.8 µM [inhibitor, single point]"},
      {"molecule": "CCOC(=O)CC(NC(=O)C(Cc1ccc(N(CCCl)CCCl)cc1)NC(C)=O)C(=O)OCC", "note": "(stereo unspecified)", "Potency": "inactive"},
      {"molecule": "O=C1NC(=O)C(=Cc2ccc(-c3ccc(F)cc3O)o2)C(=O)N1", "Potency": "inconclusive: 10 µM [inhibitor, partial curve]"},
      {"molecule": "CCn1nc(-c2cccs2)nc2c(=O)n(C)c(=O)nc1-2", "Potency": "inconclusive: 1.12 µM [inhibitor, full curve]"},
      {"molecule": "O=c1c2ccccc2nc(/C=C/c2ccc(O)cc2)n1-c1cccc(O)c1", "Potency": "inconclusive: 31.6 µM [inhibitor, partial curve]"},
      {"molecule": "CC(C)(C)NC(=O)C1CC2CCCCC2CN1", "note": "(stereo unspecified)", "Potency": "inconclusive: 10 µM [inhibitor, partial curve, poor fit]"},
      {"molecule": "Cc1ccc(/C=C2\\C(=O)NC(=S)N(c3cccc(F)c3)C2=O)o1", "Potency": "inconclusive: 35.5 µM [inhibitor, single point]"},
      {"molecule": "COCCCNC(=O)c1c(NC(=O)c2ccccc2Cl)n(Cc2ccccc2)c2nc3ccccc3nc12", "Potency": "inactive"},
      {"molecule": "COc1ccc(NP(=O)(Oc2cccc(C)c2)Oc2cccc(C)c2)cc1OC", "Potency": "inconclusive: 28.2 µM [inhibitor, partial curve]"},
      {"molecule": "COC(=O)[C@H]1[C@H]2C[C@@H]3c4[nH]c5cc(OC)ccc5c4CCN3C[C@H]2C[C@@H](OC(=O)/C=C/c2cc(OC)c(OC)c(OC)c2)[C@@H]1OC", "Potency": "inconclusive: 35.5 µM [inhibitor, partial curve]"},
      {"molecule": "O=C1NC(=O)N(Cc2ccccc2)C(=O)/C1=C\\c1ccco1", "Potency": "inconclusive: 39.8 µM [inhibitor, single point]"},
      {"molecule": "COC(=O)C1=C(c2ccccc2OCc2ccccc2)C[C@@H]2CC[C@H]1N2C(=O)NCc1ccc(N(C)C)cc1", "Potency": "inconclusive: 28.2 µM [inhibitor, single point]"},
      {"molecule": "CCOc1cc(-c2ccc(N)c(OCC)c2)ccc1N", "Potency": "inconclusive: 39.8 µM [inhibitor, partial curve]"}
    ]}
  ]
}
